Here are results for 81 molecules from ChEMBL document CHEMBL1201862, “PubChem BioAssay data set” (2004).

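Five compound concentrations were applied to cells in 96-well plates for 48 hours; endpoints were derived by simple linear interpolation of the resulting dose-response curve. GI50 = concentration required for 50% inhibition of growth.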 Calls of active or inactive are those of the source. Rule as the data show it: active = GI50 up to about 1.1 µM and inactive = higher.

For the assay, the system named is NCI-H322M. Briefly: DTP human tumour cell line panel, 48 h.
Take `O=C(O)CSc1nnc(COc2ccccc2)n1-c1ccccc1`: the GI50 was inactive: > 100 µM. As for `CO[C@@H]1[C@H](O)CC[C@]2(CO2)[C@H]1[C@@]1(C)O[C@@H]1CC=C(C)C`, the figure is inactive: 44.1 µM; as for `COc1cc2oc(=O)cc(C)c2c(OC)c1OC`, inactive: > 100 µM. Take `c1ccc(CCNCc2ccco2)nc1`: the GI50 was inactive: > 100 µM. In the case of `COc1ccc2[nH]c(S(=O)(=O)N3CC(CCl)c4ccc(N)cc43)cc2c1` (stereo unspecified), the GI50 was active: 0.379 µM. The value for `O=C(O)Cc1cc(Cl)ccc1O` was inactive: > 100 µM. The value for `COC(=O)c1ccc2c(c1)S/C(=C/c1ccc3ccc4cccc5ccc1c3c45)S2` was inactive: 87.9 µM; that for `Cc1cc2nc3c(C#N)c4c(c(Nc5ccc(Cl)cc5)n3c2cc1C)CCC4` was inactive: 64.4 µM.

`CCOC(=O)CC1C(C(=O)OCC)=Cn2c([nH]c3cccc4cccc2c43)=C1C(=O)OCC` (stereo unspecified): the GI50 is inactive: > 100 µM. With `COC(=O)N/N=C(\C)CC(=O)Nc1cccc([N+](=O)[O-])c1`, the GI50 is inactive: > 100 µM. In the case of `O=[N+]([O-])c1ccccc1C1N2CCCCC2[C@@H]2c3[nH]c4ccccc4c3CCN12` (stereo partly specified), the GI50 was inactive: 12.2 µM. The value for `COc1ccc(OC(C(=O)O)c2ccccc2)c2c1CCCC2=O` (stereo unspecified) was inactive: > 100 µM. As for `Cc1ccccc1/N=N/c1ccc(N/N=C2/CCCNC2=O)c(C)c1`, the figure is inactive: > 100 µM. As for `Nc1ccn(C2CCC(COP(=O)(O)OCC(O)COP(=O)(O)OCC3OC(n4cc(F)c(=O)[nH]c4=O)CC3O)O2)c(=O)n1` (stereo unspecified), the figure is inactive: 4.05 µM.

With `CC(C)(C)C1=Nc2c(Br)cc(C(C)(C)C)cc2C(C(F)(F)F)(C(F)(F)F)O1`, the GI50 is inactive: > 100 µM. As to `O=C(N/N=C/c1ccc([N+](=O)[O-])cc1)Nc1ccc(Br)cc1`, the GI50 was inactive: > 100 µM. The value for `O=c1sc2c(s1)SSSSS2` was inactive: > 50 µM; that for `CC1(C)Cc2cc(C(=O)O)c3c(c2C1=O)COCC3` was inactive: > 100 µM; that for `O=C1/C(=C\c2ccc(Br)cc2)CCCc2ccccc21` was inactive: 30.7 µM. The value for `O=C(NC1CCCCCC1)C1C(=O)N(C2CCCCCC2)C(=O)/C1=N\O` (stereo unspecified) was inactive: 32.7 µM; that for `Cn1c(-c2ccccc2)c2cc3nc4ccccc4nc3cc2c1-c1ccccc1` was inactive: 17.9 µM; that for `O=[N+]([O-])C(C(Cl)=C(Cl)Cl)=C(N1CCOCC1)N1CCOCC1` was inactive: > 100 µM. The value for `O=C1CNC(=O)c2[nH]cnc2N1` was inactive: > 100 µM; that for `O=C(O)c1ccc(C2SCc3nc4ccccc4n32)cc1` (stereo unspecified) was inactive: > 100 µM; that for `O=C(OCC(Cl)(Cl)Cl)N1CC[C@@H](C2CCCCC2)C1` was inactive: 36.1 µM. With `NC(=O)NC1C(C(N)=O)N(Cc2ccccc2)C(=O)N1Cc1ccccc1` (stereo unspecified), the GI50 was inactive: > 100 µM. Consider `Cc1cc2c(=O)cc(-c3ccc(C(=O)O)cc3)oc2c(C(=O)O)c1C`, for which the GI50 was inactive: > 100 µM.

For the molecule `O=C(/C=C\c1ccccc1)Oc1ccc(/C=C2\CCC/C(=C\c3ccc(OC(=O)/C=C\c4ccccc4)cc3)C2=O)cc1`, the GI50 was inactive: > 100 µM.

For `N#CCCN(CCCN(C(=O)Nc1ccccc1)c1ccccc1)C(=O)Nc1ccccc1`, the GI50 is inactive: > 100 µM. For the molecule `COC(=O)Cc1c([C@H]2[C@H](CC(=O)OC)c3ccccc3N2S(=O)(=O)c2ccc(C)cc2)[nH]c2ccccc12`, the GI50 was inactive: > 100 µM. On to `O=C(Nc1cccc(O)c1)C(=O)C(C(=O)c1ccc(Cl)c(Cl)c1)C1OC(=O)c2ccccc21` (stereo unspecified), for which the GI50 is inactive: 11.7 µM. The value for `COC(=O)c1ccc(C(=O)OC)c2nc3cc(Cl)ccc3nc12` was inactive: 86.1 µM; that for `CCN(CC)c1ccc2cc(-c3nnc(-c4ccccc4)[nH]3)c(=O)oc2c1` was inactive: 30.9 µM. As for `Cc1cc(C)c(N[S+]([O-])c2ccc(Cl)cc2)c(C)c1` (stereo unspecified), the figure is inactive: > 100 µM.

As for `CCOC(=O)N/N=C(/OCC)c1ccccc1`, the GI50 is inactive: > 100 µM. As for `CC1(C)S[C@@H]2[C@H](N3C(=O)c4ccccc4C3=O)CN2[C@H]1NC(=O)N[C@@H]1N2C[C@@H](N3C(=O)c4ccccc4C3=O)[C@H]2SC1(C)C`, the figure is inactive: > 100 µM. As for `CC12CCC(C(=O)N3CC=CCC3)(OC1=O)C2(C)C` (stereo unspecified), the figure is inactive: > 100 µM.

Take `CC(/C=N/N=C1NCCCCN1)=N\N=C1NCCCCN1`: the GI50 was inactive: > 100 µM. As for `CC(=O)NNc1nc(C)c(C(=O)NNC(=O)C(=O)Nc2ccc(Cl)c([N+](=O)[O-])c2)s1`, the figure is inactive: 62.8 µM; as for `CC(Oc1ccccc1Cl)C(=O)NN1C(=O)CC(=O)N(c2ccccc2)C1=S` (stereo unspecified), inactive: 57.1 µM. As for `COc1ccc(OC)c(-c2nc3n(c2/C=C2/C(=O)Nc4ccccc42)CCS3)c1`, the figure is inactive: > 100 µM; as for `Fc1cccc(F)c1C1SCC2=Nc3ccccc3CN21` (stereo unspecified), inactive: 48.2 µM. On to `O=C(C(Cl)=C(N1CCOCC1)N1CCOCC1)C(Cl)Cl`, for which the GI50 is inactive: > 100 µM. As for `N#Cc1nc(-c2ccccc2C(=O)O)oc1N`, the figure is inactive: > 100 µM. As for `CC(C)c1cccc(C(C)C)c1NC(=O)C(=O)Cc1nc2ccc([N+](=O)[O-])cc2nc1O`, the figure is inactive: 77.1 µM; as for `COC(=O)C1(C(=O)OC)CC(=O)c2cc3c(cc2-c2c(cc(OC)c(OC)c2OC)C1)OCO3`, inactive: > 211 µM. As for `COC(=O)[C@@H]1C[C@]2(CC=C(C)C)c3ccccc3N(S(=O)(=O)c3ccccc3)[C@@H]2N1C(=O)OC`, the figure is inactive: 35.7 µM; as for `COc1cc(/C=N/Nc2nnc3c4ccccc4c4ncccc4c3n2)cc(OC)c1OC`, inactive: > 10 µM; as for `C/C(=N\NC(=N)N)C(CN(CC(C)C)CC(C)C)C(=O)Nc1ccc(C)cc1C` (stereo unspecified), inactive: > 100 µM. With `C=C1C(=O)OC2C1C(OC(=O)/C(C)=C/C)CC(O)(CCl)C1C(OC(C)=O)C=C(C)C21O` (stereo unspecified), the GI50 is inactive: 25.3 µM.

Regarding `N#Cc1[nH]c(=O)n(-c2ccccc2)c1N`, the GI50 was inactive: > 10 µM. As for `CC1(C)[C@@H]2C[C@H]1[C@@H](Cc1cccc(C[C@H]3c4cc(-c5ccccn5)ncc4[C@H]4C[C@@H]3C4(C)C)c1)c1cc(-c3ccccn3)ncc12`, the figure is inactive: 1.41 µM. As for `CC1=C(C(=O)OC(C)C)C(c2ccccc2[N+](=O)[O-])C(C(=O)OC(CO[N+](=O)[O-])CO[N+](=O)[O-])=C(C)N1` (stereo unspecified), the figure is inactive: 7.03 µM; as for `CCOC(=O)C1(C(=O)OCC)[C@@H](c2ccccc2)C2=NO[C@@H]3CCC[C@H]1[C@H]23`, inactive: > 100 µM; as for `CC1(C)CC(=O)C(/C(=N/NC(=S)NN)C(=O)Nc2nc3ccc([N+](=O)[O-])cc3s2)C(=O)C1`, inactive: > 100 µM. As for `Cc1nc(-[n+]2nc(-c3ccncc3)nn2-c2ccccc2)sc1C`, the figure is inactive: 74.5 µM; as for `C/C(=C\c1ccccn1)c1ccccn1`, inactive: 86.9 µM; as for `CN(C)c1nc(N(C)C)n2nc(-c3ccccc3[N+](=O)[O-])nc2n1`, inactive: > 100 µM. For `Cc1n[n+]([O-])c(C)cc1[N+](=O)[O-]`, the GI50 was inactive: 17 µM. The value for `COc1ccc2cc3nc(O)cc(O)c3cc2c1OC` was inactive: > 100 µM; that for `C#CCNC(CCCNC(=N)N)C(=O)O` (stereo unspecified) was inactive: > 100 µM; that for `CCOC(=O)c1c(NC(=O)c2ccccc2)c(C#N)c2n1CCCCC2` was inactive: > 100 µM.

As to `Cc1cc2nc(N)n[n+]([O-])c2cc1C`, the GI50 was inactive: > 100 µM. As for `CN(C)c1ccc(C2CC(c3ccc4ccccc4c3O)=NN2c2ccc([N+](=O)[O-])cc2[N+](=O)[O-])cc1` (stereo unspecified), the figure is inactive: 52.1 µM. The value for `C/C(=N/NC(=S)Nc1cccc(Cl)c1)c1ccccn1` was active: 0.0453 µM.

With `CCc1c(OC(C)=O)c2c(NC3OC(COC(C)=O)C(OC(C)=O)C(OC(C)=O)C3OC(C)=O)nc(OC)nc2oc1=O` (stereo unspecified), the GI50 is inactive: > 100 µM. The value for `O=C(O)c1ccc(C2=Cc3cc(Cl)ccc3OC2)cc1` was inactive: > 100 µM.

Regarding `COCc1cc2c(cc1/C(=C/[N+](=O)[O-])CS(=O)(=O)c1ccccc1)OCO2`, the GI50 was inactive: > 100 µM. The value for `CN(C)CCCNc1cnc2cc3ccccc3cc2n1` was inactive: 30.3 µM; that for `COC(=O)C1CCC(=O)N1C(c1ccc2c(c1)OCO2)c1ccc2c(c1)OCO2` (stereo unspecified) was inactive: > 100 µM; that for `Cc1cc(Cl)cc2c1NC(=O)C2(O)CC(=O)c1ccc(F)cc1` (stereo unspecified) was inactive: > 100 µM. The value for `CC(C)CC(NP(=O)(O)OC1OC(C)C(O)C(O)C1O)C(=O)NC(Cc1c[nH]c2ccccc12)C(=O)O` (stereo unspecified) was inactive: > 100 µM. As for `COc1cc(C2c3cc4c(cc3[C@@H](Nc3cccc(O)c3)C3COC(=O)[C@H]23)OCO4)cc(OC)c1O` (stereo partly specified), the figure is inactive: 7.96 µM. Regarding `C=C1C(=O)OC2C(C)C3C=CC(=O)[C@@]3(C)C(OC(=O)/C(C)=C/C)C1[C@@H]2OC(C)=O` (stereo partly specified), the GI50 is inactive: 1.82 µM. As for `O=c1cc(C(F)(F)F)c2cc3c(cc2o1)NCCC3`, the figure is inactive: 58.2 µM; as for `N#CC(C#N)=C(N)/C(C#N)=C/c1ccc(O)c(O)c1`, inactive: > 100 µM. The value for `O=C(c1cc(Cl)cc(Cl)c1)N1CCN(C(=O)c2cc(Cl)cc(Cl)c2)C1=S` was inactive: 16.7 µM. Consider `COc1cccc(/C=C\c2ccc(O)cc2)c1`, for which the GI50 is inactive: 28.8 µM. The value for `CCC1(O)C(=O)OCc2c1cc1n(c2=O)Cc2cc3ccc(C=O)cc3nc2-1` (stereo unspecified) was inactive: 6.59 µM; that for `CCc1nc(N)nc(N)c1-c1ccc(Cl)c([N+](=O)[O-])c1` was active: 0.767 µM. For the molecule `Nc1nc(O)c2ncn([C@H]3CC[C@@H](CO)O3)c2n1`, the GI50 was inactive: > 100 µM.
